Test results taken from the supplement of paper PMC8728848.
The other results are listed elsewhere or left out.

How the values were obtained:
Experiment in all cases: glycan array binding signal (z-score within array); higher = stronger binding
Conditions in all cases: glycan notation: IUPAC condensed, linker removed
[1] = target: Neu5Ac(a2-3)[GalNAc(b1-4)]Gal(b1-4)Glc
In short: (§1)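 Columns mapping to the same glycan were averaged after glycan names were converted to IUPAC-condensed notation. The data come from 3228 arrays in the Consortium for Functional Glycomics database, limited to those with an available protein sequence. Binding is reported as a within-array Z-score averaged across arrays of one protein sequence and across linkers.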

[2] = target: Neu5Ac(a2-3)[GalNAc(b1-4)]Gal(b1-4)GlcNAc
In short: as §1

[3] = target: Neu5Ac(a2-3)[GalNAc(b1-4)]Gal(b1-4)GlcNAc(b1-3)GalNAc
In short: as §1

[4] = target: Neu5Ac(a2-3)[Neu5Ac(a2-6)]GalNAc
In short: as §1

Neu5Ac(a2-6)Gal = target: Neu5Ac(a2-6)Gal
In short: as §1

[5] = target: Neu5Ac(a2-6)Gal(b1-3)GlcNAc(b1-3)[Gal(b1-4)GlcNAc(b1-6)]Gal(b1-4)Glc
In short: as §1

Neu5Ac(a2-6)Gal(b1-4)Glc = target: Neu5Ac(a2-6)Gal(b1-4)Glc
In short: as §1

[6] = target: Neu5Ac(a2-6)Gal(b1-4)GlcNAc
In short: as §1

[7] = target: Neu5Ac(a2-6)Gal(b1-4)GlcNAc(b1-2)Man(a1-3)Man(b1-4)GlcNAc(b1-4)GlcNAc
In short: as §1

[8] = target: Neu5Ac(a2-6)Gal(b1-4)GlcNAc(b1-2)Man(a1-3)[Gal(b1-4)GlcNAc(b1-2)Man(a1-6)]Man(b1-4)GlcNAc(b1-4)GlcNAc
In short: as §1

[9] = target: Neu5Ac(a2-6)Gal(b1-4)GlcNAc(b1-2)Man(a1-3)[GlcNAc(b1-2)Man(a1-6)]Man(b1-4)GlcNAc(b1-4)GlcNAc
In short: as §1

[10] = target: Neu5Ac(a2-6)Gal(b1-4)GlcNAc(b1-2)Man(a1-3)[GlcNAc(b1-2)Man(b1-4)GlcNAc(b1-2)Man(a1-6)]Man(b1-4)GlcNAc(b1-4)GlcNAc
In short: as §1

[11] = target: Neu5Ac(a2-6)Gal(b1-4)GlcNAc(b1-2)Man(a1-3)[Man(a1-6)]Man(b1-4)GlcNAc(b1-4)GlcNAc
In short: as §1

[12] = target: Neu5Ac(a2-6)Gal(b1-4)GlcNAc(b1-2)Man(a1-3)[Neu5Ac(a2-6)Gal(b1-4)GlcNAc(b1-2)Man(a1-6)]Man(b1-4)GlcNAc(b1-4)GlcNAc
In short: as §1

[13] = target: Neu5Ac(a2-6)Gal(b1-4)GlcNAc(b1-2)Man(a1-3)[Neu5Ac(a2-6)Gal(b1-4)GlcNAc(b1-2)Man(a1-6)]Man(b1-4)GlcNAc(b1-4)[Fuc(a1-6)]GlcNAc
In short: as §1

[14] = target: Neu5Ac(a2-6)Gal(b1-4)GlcNAc(b1-2)Man(a1-6)Man(b1-4)GlcNAc(b1-4)GlcNAc
In short: as §1

[15] = target: Neu5Ac(a2-6)Gal(b1-4)GlcNAc(b1-2)Man(a1-6)[Gal(b1-4)GlcNAc(b1-2)Man(a1-3)]Man(b1-4)GlcNAc(b1-4)GlcNAc
In short: as §1

[16] = target: Neu5Ac(a2-6)Gal(b1-4)GlcNAc(b1-2)Man(a1-6)[GlcNAc(b1-2)Man(a1-3)]Man(b1-4)GlcNAc(b1-4)GlcNAc
In short: as §1

[17] = target: Neu5Ac(a2-6)Gal(b1-4)GlcNAc(b1-2)Man(a1-6)[Man(a1-3)]Man(b1-4)GlcNAc(b1-4)GlcNAc
In short: as §1

[18] = target: Neu5Ac(a2-6)Gal(b1-4)GlcNAc(b1-3)Gal(b1-3)GlcNAc
In short: as §1

[19] = target: Neu5Ac(a2-6)Gal(b1-4)GlcNAc(b1-3)Gal(b1-4)GlcNAc
In short: as §1

[20] = target: Neu5Ac(a2-6)Gal(b1-4)GlcNAc(b1-3)Gal(b1-4)GlcNAc(b1-3)Gal(b1-4)GlcNAc
In short: as §1

[21] = target: Neu5Ac(a2-6)Gal(b1-4)GlcNAc(b1-3)Gal(b1-4)[Fuc(a1-3)]GlcNAc(b1-3)Gal(b1-4)[Fuc(a1-3)]GlcNAc
In short: as §1

[22] = target: Neu5Ac(a2-6)Gal(b1-4)GlcNAc(b1-3)GalNAc
In short: as §1

[23] = target: Neu5Ac(a2-6)Gal(b1-4)GlcNAc(b1-3)[Neu5Ac(a2-6)Gal(b1-4)GlcNAc(b1-6)]GalNAc
In short: as §1

[24] = target: Neu5Ac(a2-6)Gal(b1-4)GlcNAc(b1-6)GalNAc
In short: as §1

[25] = target: Neu5Ac(a2-6)Gal(b1-4)GlcNAc(b1-6)[Gal(b1-3)GlcNAc(b1-3)]Gal(b1-4)Glc
In short: as §1

[26] = target: Neu5Ac(a2-6)Gal(b1-4)GlcNAc6S
In short: as §1

Neu5Ac(a2-6)GalNAc = target: Neu5Ac(a2-6)GalNAc
In short: as §1

[27] = target: Neu5Ac(a2-6)GalNAc(b1-4)GlcNAc
In short: as §1

[28] = target: Neu5Ac(a2-6)GalNAc(b1-4)GlcNAc6S
In short: as §1

[29] = target: Neu5Ac(a2-6)GlcNAc(b1-4)GlcNAc
In short: as §1

[30] = target: Neu5Ac(a2-6)GlcNAc(b1-4)GlcNAc(b1-4)GlcNAc
In short: as §1

Neu5Ac(a2-8)Neu5Ac = target: Neu5Ac(a2-8)Neu5Ac
In short: as §1

[31] = target: Neu5Ac(a2-8)Neu5Ac(a2-3)Gal(b1-3)GalNAc(b1-4)[Neu5Ac(a2-8)Neu5Ac(a2-3)]Gal(b1-4)Glc
In short: as §1

[32] = target: Neu5Ac(a2-8)Neu5Ac(a2-3)Gal(b1-4)Glc
In short: as §1

[33] = target: Neu5Ac(a2-8)Neu5Ac(a2-3)[Gal(b1-3)GalNAc(b1-4)]Gal(b1-4)Glc
In short: as §1

[34] = target: Neu5Ac(a2-8)Neu5Ac(a2-3)[GalNAc(b1-4)]Gal(b1-4)Glc
In short: as §1

[35] = target: Neu5Ac(a2-8)Neu5Ac(a2-8)Neu5Ac
In short: as §1

[36] = target: Neu5Ac(a2-8)Neu5Ac(a2-8)Neu5Ac(a2-3)Gal(b1-4)Glc
In short: as §1

[37] = target: Neu5Ac(a2-8)Neu5Ac(a2-8)Neu5Ac(a2-3)[GalNAc(b1-4)]Gal(b1-4)Glc
In short: as §1

[38] = target: Neu5Ac(a2-8)Neu5Ac(a2-8)Neu5Ac(a2-8)Neu5Ac(a2-3)[GalNAc(b1-4)]Gal(b1-4)Glc
In short: as §1

[39] = target: Neu5Ac(b2-6)Gal(b1-4)GlcNAc
In short: as §1

Neu5Ac(b2-6)GalNAc = target: Neu5Ac(b2-6)GalNAc
In short: as §1

[40] = target: Neu5Ac9Ac(a2-3)Gal(b1-3)GlcNAc
In short: as §1

[41] = target: Neu5Ac9Ac(a2-3)Gal(b1-4)GlcNAc
In short: as §1

[42] = target: Neu5Ac9Ac(a2-6)Gal(b1-4)GlcNAc
In short: as §1

[43] = target: Neu5Gc(a2-3)Gal(b1-3)GlcNAc
In short: as §1

[44] = target: Neu5Gc(a2-3)Gal(b1-3)[Fuc(a1-4)]GlcNAc
In short: as §1

Neu5Gc(a2-3)Gal(b1-4)Glc = target: Neu5Gc(a2-3)Gal(b1-4)Glc
In short: as §1

[45] = target: Neu5Gc(a2-3)Gal(b1-4)GlcNAc
In short: as §1

[46] = target: Neu5Gc(a2-3)Gal(b1-4)[Fuc(a1-3)]GlcNAc
In short: as §1

[47] = target: Neu5Gc(a2-6)Gal(b1-4)GlcNAc
In short: as §1

Neu5Gc(a2-6)GalNAc = target: Neu5Gc(a2-6)GalNAc
In short: as §1

[48] = target: Neu5Gc(b2-6)Gal(b1-4)GlcNAc
In short: as §1

B1: PRKCE (Homo sapiens), Q02156 (protein)
chain: MVVFNGLLKIKICEAVSLKPTAWSLRHAVGPRPQTFLLDPYIALNVDDSRIGQTATKQKTNSPAWHDEFVTDVCNGRKIELAVFHDAPIGYDDFVANCTIQFEELLQNGSRHFEDWIDLEPEGRVYVIIDLSGSSGEAPKDNEERVFRERMRPRKRQGAVRRRVHQVNGHKFMATYLRQPTYCSHCRDFIWGVIGKQGYQCQVCTCVVHKRCHELIITKCAGLKKQETPDQVGSQRFSVNMPHKFGIHNYKVPTFCDHCGSLLWGLLRQGLQCKVCKMNVHRRCETNVAPNCGVDARGIAKVLADLGVTPDKITNSGQRRKKLIAGAESPQPASGSSPSEEDRSKSAPTSPCDQEIKELENNIRKALSFDNRGEEHRAASSPDGQLMSPGENGEVRQGQAKRLGLDEFNFIKVLGKGSFGKVMLAELKGKDEVYAVKVLKKDVILQDDDVDCTMTEKRILALARKHPYLTQLYCCFQTKDRLFFVMEYVNGGDLMFQIQRSRKFDEPRSRFYAAEVTSALMFLHQHGVIYRDLKLDNILLDAEGHCKLADFGMCKEGILNGVTTTTFCGTPDYIAPEILQELEYGPSVDWWALGVLMYEMMAGQPPFEADNEDDLFESILHDDVLYPVWLSKEAVSILKAFMTKNPHKRLGCVASQNGEDAIKQHPFFKEIDWVLLEQKKIKPPFKPRIKTKRDVNNFDQDFTREEPVLTLVDEAIVKQINQEEFKGFSYFGEDLMP
[1]
  glycan array binding signal (z-score): -0.201
[2]
  glycan array binding signal (z-score): -0.347
[3]
  glycan array binding signal (z-score): 0.849
[4]
  glycan array binding signal (z-score): -0.368
Neu5Ac(a2-6)Gal
  glycan array binding signal (z-score): -0.279
[5]
  glycan array binding signal (z-score): 0.051
Neu5Ac(a2-6)Gal(b1-4)Glc
  glycan array binding signal (z-score): -0.13
[6]
  glycan array binding signal (z-score): -0.297
[7]
  glycan array binding signal (z-score): -0.232
[8]
  glycan array binding signal (z-score): 0.571
[9]
  glycan array binding signal (z-score): 3.58
[10]
  glycan array binding signal (z-score): -0.105
[11]
  glycan array binding signal (z-score): 0.351
[12]
  glycan array binding signal (z-score): 0.106
[13]
  glycan array binding signal (z-score): -0.322
[14]
  glycan array binding signal (z-score): 0.686
[15]
  glycan array binding signal (z-score): 0.796
[16]
  glycan array binding signal (z-score): -0.266
[17]
  glycan array binding signal (z-score): 0.782
[18]
  glycan array binding signal (z-score): -0.271
[19]
  glycan array binding signal (z-score): -0.39
[20]
  glycan array binding signal (z-score): 0.225
[21]
  glycan array binding signal (z-score): -0.186
[22]
  glycan array binding signal (z-score): -0.3
[23]
  glycan array binding signal (z-score): -0.286
[24]
  glycan array binding signal (z-score): -0.321
[25]
  glycan array binding signal (z-score): -0.441
[26]
  glycan array binding signal (z-score): -0.31
Neu5Ac(a2-6)GalNAc
  glycan array binding signal (z-score): -0.427
[27]
  glycan array binding signal (z-score): -0.353
[28]
  glycan array binding signal (z-score): -0.046
[29]
  glycan array binding signal (z-score): -0.318
[30]
  glycan array binding signal (z-score): -0.361
Neu5Ac(a2-8)Neu5Ac
  glycan array binding signal (z-score): 0.185
[31]
  glycan array binding signal (z-score): -0.296
[32]
  glycan array binding signal (z-score): -0.335
[33]
  glycan array binding signal (z-score): -0.308
[34]
  glycan array binding signal (z-score): 0.559
[35]
  glycan array binding signal (z-score): 1.19
[36]
  glycan array binding signal (z-score): 0.163
[37]
  glycan array binding signal (z-score): -0.074
[38]
  glycan array binding signal (z-score): 0.987
[39]
  glycan array binding signal (z-score): -0.121
Neu5Ac(b2-6)GalNAc
  glycan array binding signal (z-score): -0.295
[40]
  glycan array binding signal (z-score): -0.41
[41]
  glycan array binding signal (z-score): -0.408
[42]
  glycan array binding signal (z-score): -0.427
[43]
  glycan array binding signal (z-score): -0.344
[44]
  glycan array binding signal (z-score): -0.22
Neu5Gc(a2-3)Gal(b1-4)Glc
  glycan array binding signal (z-score): -0.141
[45]
  glycan array binding signal (z-score): -0.302
[46]
  glycan array binding signal (z-score): -0.302
[47]
  glycan array binding signal (z-score): -0.293
Neu5Gc(a2-6)GalNAc
  glycan array binding signal (z-score): -0.342
[48]
  glycan array binding signal (z-score): 0.617
